Experimental data reported in the supplement of paper PMC12217912.
The other results are listed elsewhere or left out. The full chains were built here from the parent and the listed change. Inactive controls read about 0.05.

B1: TEV protease; numbered along this chain (parent)
chain: MGESLFKGPRDYNPISSSICHLTNESDGHTTSLYGIGFGPFIITNKHLFRRNNGTLVVQSLHGVFKVKDTTTLQQHLVDGRDMIIIRMPKDFPPFPQKLKFREPQREERICLVTTNFQTKSMSSMVSDTSCTFPSGDGIFWKHWIQTKDGQCGSPLVSTRDGFIVGIHSASNFTNTNNYFTSVPKNFMELLTNQEAQQWVSGWRLNADSVLWGGHKVFMVKPEEPFQPVKEATQL

Variants of: B1
Test: raw area under fraction-flipped curve 0-4 h after induction (AUC4h, not background-subtracted), DNA-recorder readout of cleavage of the substrate (dimensionless); higher = more cleavage of the substrate by the protease variant
Conditions: temperature: 34 °C; time window: 0-4 h after rhamnose induction
Experimental: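 In vivo DNA recorder in E. coli TOP10(DE3) ΔrhaA at 34 °C. Each TEVp single-site mutant (parent TEVp 0) is paired with a single-site variant of the 7-mer TEVs (canonical ENLYFQ|S). The substrate sits between flexible linkers in a Bxb1-sfGFP-TEVs-SsrA fusion, so cleavage stabilises Bxb1 and speeds flipping of a recombination array, read by NGS. The value is the raw area under the fraction-flipped curve over 0-4 h after rhamnose induction (AUC4h), with ≥20 reads per time point. It is not background-subtracted; inactive controls average about 0.047.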
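Note: Bxb1 expression induced with 0.2% (w/v) L-rhamnose at OD600 near 0.5, cultures sampled hourly, flipped fraction per protease–substrate barcode pair counted by paired-end Illumina sequencing.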

| Variant | area with substrate CNLYFQS | area with substrate HNLYFQS | area with substrate INLYFQS | area with substrate MNLYFQS | area with substrate PNLYFQS | area with substrate TNLYFQS | area with substrate WNLYFQS | area with substrate YNLYFQS | area with substrate KNLYFQS | area with substrate LNLYFQS |
| --- | --- | --- | --- | --- | --- | --- | --- | --- | --- | --- |
| T159N | 0.074 | 0.0754 | 0.0789 | 0.0694 | 0.1 | 0.07 | 0.0624 | 0.0577 | – | – |
| E189F | 0.0584 | 0.0595 | 0.0594 | 0.0763 | – | 0.0499 | 0.0613 | – | 0.0538 | 0.0634 |
| Y179F | 0.0603 | – | – | – | – | 0.0325 | – | 0.0736 | – | 0.0676 |
| Y179C | 0.0582 | 0.0691 | 0.0515 | – | – | 0.0637 | 0.0474 | 0.0508 | 0.0595 | – |
| L190A | 0.0622 | 0.0575 | 0.057 | 0.0381 | 0.0546 | 0.0615 | 0.0606 | 0.0774 | 0.0579 | 0.0624 |
| F180M | 0.0574 | 0.0726 | – | – | – | – | 0.0565 | – | 0.0749 | – |
| F180K | 0.0592 | 0.0471 | 0.0669 | 0.0322 | 0.043 | 0.0446 | 0.0544 | 0.0546 | – | – |
| V183Q | 0.0476 | 0.0661 | – | – | – | – | 0.0491 | – | 0.0894 | 0.0536 |
| F173N | 0.0628 | 0.0724 | – | – | – | 0.0649 | – | – | – | – |
| F173Y | 0.0631 | 0.0623 | 0.0574 | – | 0.0556 | – | 0.0665 | – | 0.0772 | 0.0621 |
| F173C | 0.0634 | 0.0567 | 0.0465 | – | 0.0679 | 0.0645 | 0.0601 | 0.0427 | 0.0654 | – |
| N206Y | 0.0778 | 0.0546 | – | – | – | 0.0762 | 0.0619 | – | 0.0664 | – |
| D208P | 0.0593 | – | 0.0544 | – | 0.0642 | 0.0576 | 0.0684 | 0.0502 | – | 0.0677 |
| L205K | 0.0779 | 0.0701 | – | 0.0807 | – | – | – | 0.067 | – | 0.0613 |
| L205I | 0.0871 | 0.0683 | – | – | – | – | – | – | – | – |
| L205T | 0.0317 | – | – | 0.0614 | – | – | – | – | – | – |
| A170H | 0.0674 | – | – | – | – | – | 0.0534 | 0.0802 | – | – |
| N172I | 0.0723 | 0.0508 | 0.0719 | 0.0368 | – | 0.0547 | 0.0585 | 0.0475 | – | 0.0557 |
| N172T | 0.0682 | 0.0597 | 0.0616 | 0.0593 | – | – | – | 0.0593 | – | 0.0674 |

| Variant | area with substrate CNLYFQS | area with substrate HNLYFQS | area with substrate INLYFQS | area with substrate MNLYFQS | area with substrate PNLYFQS | area with substrate TNLYFQS | area with substrate WNLYFQS | area with substrate YNLYFQS | area with substrate KNLYFQS | area with substrate LNLYFQS |
| --- | --- | --- | --- | --- | --- | --- | --- | --- | --- | --- |
| N172G | 0.0538 | 0.0531 | – | 0.0433 | 0.0705 | 0.0409 | 0.0556 | – | 0.0581 | 0.0614 |
| N175I | 0.0614 | 0.0731 | 0.0557 | – | 0.0516 | 0.0607 | 0.0528 | 0.0676 | 0.0721 | – |
| N175H | 0.0243 | 0.0597 | 0.0651 | – | 0.0582 | – | – | – | – | – |
| A196S | 0.041 | 0.0506 | 0.0715 | 0.0735 | 0.0648 | 0.0751 | 0.0605 | – | 0.0576 | 0.0621 |
| K185H | 0.0565 | 0.0797 | – | – | 0.0596 | 0.0585 | 0.0569 | – | – | 0.0645 |
| L211W | 0.0752 | 0.0662 | – | – | 0.065 | – | 0.0586 | 0.111 | 0.061 | – |
| L211Y | 0.0701 | – | 0.0539 | 0.0741 | 0.0631 | – | 0.0649 | – | – | 0.0485 |
| L211R | 0.0566 | – | 0.0746 | – | – | 0.0437 | – | – | 0.0721 | 0.0192 |
| L211A | 0.0078 | 0.0765 | – | 0.0323 | – | 0.0609 | 0.0593 | – | – | – |
| S169E | 0.0593 | 0.063 | 0.0565 | 0.0704 | – | – | 0.0678 | – | – | – |
| S169P | 0.0588 | 0.0583 | 0.0526 | 0.0559 | 0.0612 | 0.0618 | 0.0551 | 0.0349 | 0.06 | – |
| Q198H | 0.0711 | 0.0682 | – | – | – | – | 0.0824 | 0.0706 | 0.0803 | – |
| Q198M | 0.0852 | 0.0512 | 0.0601 | 0.0587 | 0.0686 | 0.0695 | – | 0.0604 | 0.06 | 0.0496 |
| N186G | 0.0588 | 0.068 | – | – | – | – | 0.0564 | – | – | – |
| N186D | 0.073 | 0.0647 | 0.0609 | 0.0581 | 0.0471 | 0.0667 | 0.0516 | – | 0.0768 | 0.0655 |
| N193L | 0.0812 | – | – | – | 0.0573 | 0.0611 | 0.058 | 0.0529 | 0.0501 | – |
| T174Q | 0.0678 | 0.0651 | – | 0.0593 | 0.0795 | 0.0404 | – | 0.047 | – | – |
| T174W | 0.0655 | 0.0591 | – | 0.0704 | 0.0348 | 0.0661 | 0.0493 | 0.0607 | – | 0.071 |
| T174N | 0.061 | 0.076 | 0.0538 | 0.0634 | 0.067 | 0.0645 | – | 0.0677 | – | 0.0606 |

Same assay, conditions: temperature: 34 °C; time window: 0-4 h after rhamnose induction

| Variant | area with substrate NNLYFQS | area with substrate RNLYFQS | area with substrate SNLYFQS | area with substrate VNLYFQS | area with substrate FNLYFQS | area with substrate GNLYFQS | area with substrate QNLYFQS |
| --- | --- | --- | --- | --- | --- | --- | --- |
| E189F | 0.0337 | 0.0624 | 0.0747 | 0.0488 | – | – | – |
| Y179F | – | – | – | – | 0.0669 | 0.0648 | – |
| Y179C | – | – | – | – | 0.0653 | – | – |
| L190A | – | 0.0518 | – | 0.0688 | – | 0.104 | – |
| F180M | – | – | – | 0.0625 | – | – | – |
| F180K | 0.0545 | – | 0.0575 | 0.0478 | 0.0871 | 0.057 | – |
| V183Q | – | 0.0599 | – | – | – | – | – |
| F173N | – | 0.0743 | – | – | 0.0553 | – | 0.0416 |
| F173Y | – | – | 0.0585 | – | – | – | – |
| F173C | 0.0621 | 0.0563 | – | – | 0.0566 | – | – |
| N206Y | – | 0.0725 | 0.0372 | – | 0.0686 | – | – |
| D208P | 0.0588 | – | 0.0694 | – | – | 0.0713 | 0.0599 |
| L205K | – | – | 0.0747 | – | – | 0.0629 | – |
| L205I | – | – | – | – | 0.0511 | – | – |
| L205T | – | – | – | 0.0421 | – | – | – |
| A170H | 0.0641 | – | 0.0562 | – | – | – | – |
| N172I | 0.0523 | – | – | 0.0767 | 0.0468 | – | – |
| N172T | – | – | – | 0.0594 | – | – | – |

| Variant | area with substrate NNLYFQS | area with substrate RNLYFQS | area with substrate SNLYFQS | area with substrate VNLYFQS | area with substrate FNLYFQS | area with substrate GNLYFQS | area with substrate QNLYFQS |
| --- | --- | --- | --- | --- | --- | --- | --- |
| N172G | 0.0515 | – | – | – | 0.0552 | 0.0583 | – |
| N175I | 0.0562 | – | – | 0.0784 | 0.0549 | – | – |
| N175H | 0.0875 | – | – | – | – | – | – |
| A196S | 0.0566 | – | 0.0646 | 0.0067 | – | 0.0641 | 0.0612 |
| K185H | – | 0.0667 | – | – | 0.0656 | – | – |
| L211W | – | – | 0.0743 | – | 0.0684 | – | – |
| L211Y | – | – | – | 0.0566 | – | 0.0829 | – |
| L211A | – | – | – | 0.0762 | 0.0629 | 0.0635 | – |
| S169E | – | – | – | – | 0.0512 | 0.053 | – |
| S169P | 0.0538 | 0.0625 | 0.0537 | 0.0614 | 0.0593 | 0.0549 | – |
| Q198H | 0.0636 | – | – | – | – | – | – |
| Q198M | 0.0497 | – | 0.0612 | – | 0.059 | – | – |
| N186G | – | – | – | – | – | 0.0664 | 0.0438 |
| N186D | 0.0635 | – | – | – | – | – | – |
| N193L | – | – | – | 0.0985 | – | 0.0447 | 0.059 |
| T174Q | – | – | – | 0.0484 | 0.0743 | 0.0838 | – |
| T174W | 0.0611 | – | – | 0.0514 | 0.0809 | – | – |
| T174N | 0.0571 | – | – | – | 0.0763 | 0.0641 | – |
